The results in this text go back to article PMC12136788.

To fix the notation:
B1: chr6:96891104:96891324:-|CDS|ENSG00000123545|unk|total|mutant (ssRNA)
RNA: GGGAGUUCUACAGUCCGACGAUCUAAUCAUAAGCUUUUCCCAGAAACCUGGACUGCUGAGAAAAUAAUGCAGGAAUACCAGUCCGAACAGAAAGAUGUGAAUUCUCUUCUUAAAUAUUUUGUUACUUUUGAAGUCGAAAUCUUCAACAGAGGAUUGAGCAUCA
B2: chr2:70149884:70150355:-|three_prime_utr|ENSG00000115998|control|control|control (ssRNA)
RNA: GGGAGUUCUACAGUCCGACGAUCAGAUAAUAAUCUUUUGCUGCUUAAUUUGCACAUCCCCACCCCUUGACAACUUUAAAUGCUAGUUAGGCACUUAGAUGGCCCUGUUCCUUGGUAAACUGCUCUUAGCUAAGAUGCAAAUUCCAACAGAGGAUUGAGCAUCA
B3: chr1:93888438:93888539:-|3pUTR|ENSG00000023909|msi1|FALSE|unique (ssRNA)
RNA: GGGAGUUCUACAGUCCGACGAUCAGAUAUUUUUCCUGUCAUUGAUGAGAUAUAUCAGAGUAACUGGAGUAGCUGGGAUUUACUAGUAGUGUAAAUAAAAUUCACUCUUCAAUACAUGAAUGGAAACUUAAAUUUUUUUUUAUGCAACAGAGGAUUGAGCAUCA
B4: chr12:1788447:1788559:+|3pUTR|ENSG00000006831|unk|FALSE|bound_elsewhere (ssRNA)
RNA: GGGAGUUCUACAGUCCGACGAUCUUUCUUUUUUGGCCCUAGGCUGGUUGGGACCUCUACAGCUUCAUUCUUUCACCAUUAAAUAGUGGCCUUUUUCAGUAUUUUCCCUCUUCCCCUUUAUAAAUUAUGCUAAAGCCACAAAGCCAACAGAGGAUUGAGCAUCA
B5: chr19:53353201:53353302:+|CDS|ENSG00000213799|msi1|total|mutant (ssRNA)
RNA: GGGAGUUCUACAGUCCGACGAUCCACAAUUCAGCCCUUGAAAUUCAUAAGGCAAUUCAUACUGGAGAAAAACCUUACAAGUGCCGUGAAUGUGGCAAGGUUUUUAACCGAAAAGCAAACCUUUCACGUCAUCACCGACUUCAUCAACAGAGGAUUGAGCAUCA
B6: chr4:16162636:16162738:-|3pUTR|ENSG00000169762|unk|total|mutant (ssRNA)
RNA: GGGAGUUCUACAGUCCGACGAUCACCUUAAAUAAGACAUGAUGAACCGCCGCAUUUUGCCGGGUUAAAAAAAAAUGCUAAACCCGUUUAUUUAUUAAAAAAAUAAUUAAUGAAGGCUAUGCAUUACUGGGAAAAAUCCUUCAUCAACAGAGGAUUGAGCAUCA
B7: chr22:39520512:39520623:+|5pUTR|ENSG00000128272|unk|total|mutant (ssRNA)
RNA: GGGAGUUCUACAGUCCGACGAUCUCUAUAAAGGGCCGGCGGGCGGCCACGGCAGCCAUUUCUACUUUGCCCGCCCACAGAUGCCGUUUUCUCUGCGCGUGUGCGUUUUCCCUCCUCCCCGCCCUCAGGGUCCACGGCCACCAUCAACAGAGGAUUGAGCAUCA
B8: chr2:106801599:106806677:-|three_prime_utr|ENSG00000144057|control|control|control (ssRNA)
RNA: GGGAGUUCUACAGUCCGACGAUCAAUCAAUGUGCAAUAAGGUACUACUGUUGUACUCAAAGUCACAAAAGAAUACUUGAAGAUAGAUUUUAGACAGUGUAGUUUUGAGUCUUUAAACAGUAAUUUAGUGGUGGUCAUGAUAAUCAACAGAGGAUUGAGCAUCA
B9: chr11:103061782:103061883:-|3pUTR|ENSG00000137692|unk|total|mutant (ssRNA)
RNA: GGGAGUUCUACAGUCCGACGAUCAAGACUGUUGGCCUUGACUUCUGGGAUAAUGAUUUGCUGAUGCAGCUAAUAAACAUUUCCCGGUAUUGGAAAAAUGCUCCUACUUUCCGCUCUGGGUUUCUAUAAAAGCUGCCAAGGUCUCAACAGAGGAUUGAGCAUCA
B10: chr8:58815337:58815724:-|CDS|ENSG00000198846|control|control|control (ssRNA)
RNA: GGGAGUUCUACAGUCCGACGAUCUAGUCUCCCCAGGAACAUAGCCCCCAAGCCGAAUAACCAAAUGCCAGUGACUGUCUCUAUAGCAAACAUGGCUGUGUCCCCUCCUCCUCCCCUCCAGAUCAGCCCGCCUCUUCACCAGCACAACAGAGGAUUGAGCAUCA
B11: chr6:89794666:89794767:-|CDS|ENSG00000112159|unk|total|mutant (ssRNA)
RNA: GGGAGUUCUACAGUCCGACGAUCCCAGUCUUUCAAAGACUUUUCCCCGAGAGUUCAGAUGCUAAUCCAGUACGCUAUGGACGCCGGAGGAUGAAGCUCCGGGACCUAAUGGAAGCAGCCUUCAAGUUUCUGCAGCAGGAGCAGCAACAGAGGAUUGAGCAUCA
B12: ENSG00000112208:stop:overlap|stop_codon|ENSG00000112208|stop_codon|NA|stop_codon (ssRNA)
RNA: GGGAGUUCUACAGUCCGACGAUCAGCAUUCUAAAGGAGCUGGUUCCAAAACUCUGCAACAAAAUGCUGAAAGCAGAUUCAAUUAGUCUUCAAACCUAAGAGCAUUUACACAAUACACAAGGUGUAAAAAUGAUAAAAUACUAUCAACAGAGGAUUGAGCAUCA
B13: chr11:92891788:92891889:+|3pUTR|ENSG00000165323|msi1|total|mutant (ssRNA)
RNA: GGGAGUUCUACAGUCCGACGAUCAUGAGGCUUUUUGGGUUCCAUUUGGUGGGUGGGGGAGGAAGUUAAAGUUGUUUGAACAUCCGAAAGAAUGUGAUUAUCUGGUUGGUUUUGUGUUUUCUGGUAAAUAUUCCAGUUGGUAAACAACAGAGGAUUGAGCAUCA
B14: ENSG00000069329:stop:overlap|stop_codon|ENSG00000069329|stop_codon|NA|stop_codon (ssRNA)
RNA: GGGAGUUCUACAGUCCGACGAUCUGGAGAAGGGGCCCCACAGACCGUUCGGGAUUAAGACCAGCCCGAUUUGGCCUGCGGGAUAGGGGACAGCAGGAGGAAGGCCGCGGGCAGGCUGAUCCGGGCCGGGGUGGGCGGCGGCUCCAACAGAGGAUUGAGCAUCA
B15: ENSG00000117906:stop:overlap|stop_codon|ENSG00000117906|stop_codon|NA|stop_codon (ssRNA)
RNA: GGGAGUUCUACAGUCCGACGAUCAGUCCUUUAGGAAGCAUCAAUGUGGAGGUUUGGGGCUCCAUCCUCAGAGCCAGUCUGCUUAGCUUCACAUUUAGCUCCAGCACUUCACGGUUGUGUAACUUUGGCUUCACUUAAAGGACACAACAGAGGAUUGAGCAUCA
B16: chr1:184691659:184691688:-|3pUTR|ENSG00000116406|msi1_unk|FALSE|overlapping (ssRNA)
RNA: GGGAGUUCUACAGUCCGACGAUCCUCCAACGUUGUAAUUACAACUCUACAUUCAUUUACUUACUUGACAUACUGCCACAAAGUAGUUUUUGAGUUCAUUAAAAAUUCCAAAGGCAUUAGUUGUUUUUUUUUUUUUUAGUGUUUCAACAGAGGAUUGAGCAUCA
B17: chr6:105100707:105100870:-|3pUTR|ENSG00000112276|msi1|FALSE|unique (ssRNA)
RNA: GGGAGUUCUACAGUCCGACGAUCUGAGAUAUAUAUUUUCACAGUCUUUUCUAGAUAUAUUAUUGUUUUAACUUAACAAAUCUUAGCAAUCUCUCAAUGCCUUUUCACUUAUUUUUUUCCAAGUUAUGAUUCUUUUUCCUCACACAACAGAGGAUUGAGCAUCA
B18: chr5:40972473:40972581:+|CDS|ENSG00000112936|unk|total|mutant (ssRNA)
RNA: GGGAGUUCUACAGUCCGACGAUCAAAACCUUUCUACACAGUUGGUGAGAAGGUGACUGUUUCCUGUUCAGGUGGCAUGUCCUCCGAAGGUCCUUCAGCAUUUCUCUGUGGCUCCAGCCUUAAGUGGAGUCCUGAGAUGAAGAACAACAGAGGAUUGAGCAUCA
B19: chr1:153948111:153948329:-|CDS|ENSG00000160741|control|control|control (ssRNA)
RNA: GGGAGUUCUACAGUCCGACGAUCCCUGGCCGGAGUGCCUGGCUUUGAGGUGUCAGCAGCUGGAUUGGAGCUAGGGCUUGGGCUAGAAGAUGAGCUGCGCAUGGAGCCACUGGGCCUGGAAGGGCUAAACAUGCUGAGUGACCCCAACAGAGGAUUGAGCAUCA
B20: chr2:27041412:27041530:+|3pUTR|ENSG00000119777|msi1_unk|FALSE|overlapping (ssRNA)
RNA: GGGAGUUCUACAGUCCGACGAUCACUUCAAAAUGCCCAGCCUGCCCCAAAUGCCUCUAAGCCCCUCCCUGUCCCCUCCCUUGUAGUCCUACUUCUUCCAACUUUCCAUUCCCCAUCAUGCUGGGGGUCUUGGUCACAAGGCUCCAACAGAGGAUUGAGCAUCA
B21: chr17:30468017:30468118:+|3pUTR|ENSG00000108582|unk|total|mutant (ssRNA)
RNA: GGGAGUUCUACAGUCCGACGAUCGCUAAAAUUUUGGGGAUAUGAUUUGGGUCUUUGAUUAAUGUCAGCUGAACUUGGAUUUCCCGUUCAUGAAGAAAUCUCUCCCAAUACCCAUUUAUCCUAUUUUCCGCAAUAAUUCGUUAACAACAGAGGAUUGAGCAUCA
B22: chr17:79834786:79834887:-|CDS|ENSG00000141582|unk|total|mutant (ssRNA)
RNA: GGGAGUUCUACAGUCCGACGAUCAAUGAUGCCGGCCCCCAAAGAGGCUGUGACGGGCAACGGGAUUGGGGGCAAGAUGAAGACCGUCAAGAACAAGAACAAGAACGGACGCAUCGUGAUCGUGAUGAGCAAAUACAUGGAGAACAACAGAGGAUUGAGCAUCA

The list shows a part of the results.

The target in this assay is MSI1 full-length (mouse, UniProt Q61474 1-362). Nature of the assay: nsRBNS (natural sequence RNA bind-n-seq); RBNS binding buffer (assumed for nsRBNS): 25 mM Tris pH 7.5, 150 mM KCl, 3 mM MgCl2, 0.01% Triton X-100, 500 ug/ml BSA, 20 U/ml SUPERase-In, 4 C; UNK is unkempt and MSI1 is Musashi-1; names of the RNAs are library labels; protein concentration not given here; high values mean tight binding.
Chain of UniProt Q61474 (Q61474 whole entry): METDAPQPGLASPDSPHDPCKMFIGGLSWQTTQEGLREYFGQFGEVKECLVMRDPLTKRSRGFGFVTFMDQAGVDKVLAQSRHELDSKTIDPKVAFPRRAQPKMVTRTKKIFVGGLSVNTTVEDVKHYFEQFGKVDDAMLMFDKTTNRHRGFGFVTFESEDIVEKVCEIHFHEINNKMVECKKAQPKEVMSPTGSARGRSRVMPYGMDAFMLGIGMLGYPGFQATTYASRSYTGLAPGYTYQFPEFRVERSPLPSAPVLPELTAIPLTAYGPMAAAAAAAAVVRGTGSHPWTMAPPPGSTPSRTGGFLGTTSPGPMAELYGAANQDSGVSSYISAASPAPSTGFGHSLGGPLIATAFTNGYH
B1 had a binding signal of 0.449 enrichment R. Consider B2, for which the binding signal was 0.924 enrichment R. Then B3, with 28.4 enrichment R; and B4, with 2 enrichment R. Then B5, with 0.187 enrichment R; and B6, with 0.415 enrichment R. For B7 the value was 0.633 enrichment R; for B8, 9.62 enrichment R. B9 gave a binding signal of 0.292 enrichment R. In turn, B10 had a binding signal of 1.28 enrichment R. For B11 the value was 0.363 enrichment R; for B12, 2.02 enrichment R; for B13, 0.689 enrichment R.

The molecule B14 gave a binding signal of 0.367 enrichment R. B15 returned a binding signal of 0.431 enrichment R. Then B16, with 6.72 enrichment R; and B17, with 7.46 enrichment R; and B18, with 0.35 enrichment R. With B19, the binding signal amounted to 0.515 enrichment R.

B20 returned a binding signal of 1.21 enrichment R. Then B21, with 0.32 enrichment R; and B22, with 0.39 enrichment R.
